Data from publication PMC4336329 (PLoS ONE, 2015).
Hit rate of the full screen: of about 310,000 compounds, about 14,000 (4.5%) showed an effect of 50% or more. Effects have a minus sign here. This is one part of the list.

molecular target: human ether-à-go-go-related gene (hERG) potassium channel (human, UniProt Q12809); experiment: primary screen, population patch clamp on CHO cells stably expressing hERG
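Further: peak tail current of the secondary pulse compared with the same well before compound.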

Sequence of human ether-à-go-go-related gene (hERG) potassium channel (Q12809 whole entry, looked up): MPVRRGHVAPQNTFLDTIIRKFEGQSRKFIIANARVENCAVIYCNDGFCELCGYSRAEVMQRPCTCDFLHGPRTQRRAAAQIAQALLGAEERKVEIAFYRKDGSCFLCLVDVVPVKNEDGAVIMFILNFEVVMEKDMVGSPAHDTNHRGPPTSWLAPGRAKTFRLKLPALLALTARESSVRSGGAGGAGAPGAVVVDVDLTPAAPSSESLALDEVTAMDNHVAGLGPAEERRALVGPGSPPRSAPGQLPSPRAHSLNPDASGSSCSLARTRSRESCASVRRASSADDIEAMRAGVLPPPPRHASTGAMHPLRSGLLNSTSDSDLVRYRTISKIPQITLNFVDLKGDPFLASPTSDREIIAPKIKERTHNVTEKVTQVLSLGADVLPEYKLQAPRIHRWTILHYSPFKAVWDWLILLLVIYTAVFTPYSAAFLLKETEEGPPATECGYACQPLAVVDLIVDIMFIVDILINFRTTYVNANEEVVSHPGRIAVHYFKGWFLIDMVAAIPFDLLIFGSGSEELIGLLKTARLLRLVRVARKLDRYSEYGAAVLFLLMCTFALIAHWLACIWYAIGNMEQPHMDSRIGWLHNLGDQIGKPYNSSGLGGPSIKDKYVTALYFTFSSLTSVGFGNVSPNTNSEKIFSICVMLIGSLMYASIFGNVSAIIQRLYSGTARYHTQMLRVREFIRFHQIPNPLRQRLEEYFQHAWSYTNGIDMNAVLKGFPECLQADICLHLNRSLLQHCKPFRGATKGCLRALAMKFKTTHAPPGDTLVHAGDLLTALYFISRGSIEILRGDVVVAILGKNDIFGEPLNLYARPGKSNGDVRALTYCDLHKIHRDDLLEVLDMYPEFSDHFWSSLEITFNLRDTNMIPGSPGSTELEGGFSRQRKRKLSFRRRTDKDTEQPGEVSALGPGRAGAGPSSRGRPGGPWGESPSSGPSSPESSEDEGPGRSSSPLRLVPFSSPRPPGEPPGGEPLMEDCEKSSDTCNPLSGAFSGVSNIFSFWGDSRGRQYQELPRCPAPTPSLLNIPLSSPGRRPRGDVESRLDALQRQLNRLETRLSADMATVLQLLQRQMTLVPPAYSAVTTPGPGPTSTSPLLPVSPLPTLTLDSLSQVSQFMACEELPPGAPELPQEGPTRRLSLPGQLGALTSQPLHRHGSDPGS

| Structure (SMILES) | hERG current change (%, negative = inhibition) at 10uM |
| --- | --- |
| O=C(N/C=C/c1ccccc1)Nc1ccc(Cl)cc1 | 10.3% |
| Cc1nnc(SC(C)C(=O)N2CCc3ccccc32)s1 (stereo not shown) | 11.8% |
| C#CC[N+]1(CC#Cc2ccccc2)CCCCC1.[I-] | 2.16% |
| CC1(C)C(=O)Nc2ccccc2N1C(=O)c1ccc([N+](=O)[O-])cc1 | -4.71% |
| COc1cccc(CNC(=O)C2CCCN(C(=O)c3ccc(Cl)cc3)C2)c1 (stereo not shown) | -36% |
| Cc1cc2c(=O)n(C)c(SCC(=O)Nc3ccccc3C)nc2s1 | -8.62% |
| Fc1ccc(Oc2cc(N3CCOCC3)nc(-c3ccccc3)n2)c(F)c1 | 12.5% |
| Cc1nnc(NC(=O)CCC(=O)NC2CCCCCCC2)s1 | 17.2% |
| CCOC(=O)c1c(C)[nH]c(C(=O)COC(=O)c2[nH]c(C)c(C(C)=O)c2C)c1C | 18.5% |
| CCOc1ccc(N2C(=O)CC(SCCN)C2=O)cc1.Cl (stereo not shown) | 14.3% |
| O=C(CSc1nnc(SCc2ccc(Cl)cc2)s1)N/N=C/c1c(Cl)cccc1Cl | -11.5% |
| O=C(CN1CCN(C(=O)c2ccco2)CC1)Nc1cccc([N+](=O)[O-])c1 | -49.1% |
| N#Cc1nc(-c2cccc3ccccc23)oc1NCCN1CCCCC1 | -36.2% |
| Cc1c(NS(=O)(=O)c2cc([N+](=O)[O-])ccc2Cl)c(=O)n(-c2ccccc2)n1C | -10.4% |
| COc1cccc2cc(C(=O)Nc3ccc(F)cc3)c(=Nc3ccc(C(=O)O)cc3)oc12 | 20.7% |
| O=c1nc2n(c3ncccc13)CCC2 | 16.3% |
| CN(Cc1ccccc1)c1ccc(C(=O)O)cc1[N+](=O)[O-] | 23.5% |
| COc1cccc(-c2nc(C=O)cs2)c1 | -25.8% |
| CC(C)C(NC(=O)c1cccs1)c1nnc(SCC(=O)Nc2nccs2)n1C (stereo not shown) | -11.4% |
| COCCNC(=O)C1CCC(CNS(=O)(=O)c2cccc3nsnc23)CC1 (stereo not shown) | 17.8% |
| O=C(NCC(O)c1ccc([N+](=O)[O-])cc1)C(c1ccccc1)c1ccccc1 (stereo not shown) | -46.2% |
| C/C(=N\NC(=O)c1c(C)nc2ccccn12)c1cccc([N+](=O)[O-])c1 | -17.5% |
| N#CCC(=O)N/N=C/c1ccc(OS(=O)(=O)c2ccccc2)cc1 | -6.52% |
| O=C(NCc1ccccc1)NC(=O)c1ccc(Cl)cc1 | 20.5% |
| COc1cc(C2C(C#N)=C(N)Oc3c2ccc2ccccc32)ccc1OCC(=O)Nc1cccc(C)c1 (stereo not shown) | 6.22% |
